No constants are given. Whether binding was seen depends on the method and setting. In cells and extracts the contact can be indirect. Some results given as binding are weak or reduced against the parent protein; the word gives no strength.

Sequences of proteins named here, by UniProt entry; tags and fusion partners are left off.
UniProt P58753: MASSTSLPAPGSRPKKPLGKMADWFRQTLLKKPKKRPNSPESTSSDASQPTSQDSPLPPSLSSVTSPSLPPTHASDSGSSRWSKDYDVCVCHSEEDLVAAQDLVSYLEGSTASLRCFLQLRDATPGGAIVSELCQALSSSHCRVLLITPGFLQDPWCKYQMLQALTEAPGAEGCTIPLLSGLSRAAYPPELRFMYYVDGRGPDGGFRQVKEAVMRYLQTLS
UniProt P51617: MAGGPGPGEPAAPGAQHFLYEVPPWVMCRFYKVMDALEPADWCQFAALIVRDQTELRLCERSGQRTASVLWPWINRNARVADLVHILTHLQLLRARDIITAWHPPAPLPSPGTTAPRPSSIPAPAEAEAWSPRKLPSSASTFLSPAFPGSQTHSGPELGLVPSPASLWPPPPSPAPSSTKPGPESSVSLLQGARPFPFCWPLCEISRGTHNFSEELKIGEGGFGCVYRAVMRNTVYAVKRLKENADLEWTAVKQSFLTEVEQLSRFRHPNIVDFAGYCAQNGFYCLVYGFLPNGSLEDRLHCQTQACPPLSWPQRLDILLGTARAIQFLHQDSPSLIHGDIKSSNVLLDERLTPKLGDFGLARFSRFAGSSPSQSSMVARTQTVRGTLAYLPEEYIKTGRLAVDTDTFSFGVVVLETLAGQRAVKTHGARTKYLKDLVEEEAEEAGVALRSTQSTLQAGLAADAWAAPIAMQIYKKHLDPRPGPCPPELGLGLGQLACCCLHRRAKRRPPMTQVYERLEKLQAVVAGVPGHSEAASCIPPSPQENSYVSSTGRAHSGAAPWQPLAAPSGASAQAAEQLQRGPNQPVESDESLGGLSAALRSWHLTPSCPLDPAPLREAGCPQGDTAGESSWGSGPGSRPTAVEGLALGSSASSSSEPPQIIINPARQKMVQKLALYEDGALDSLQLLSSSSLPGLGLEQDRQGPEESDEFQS
UniProt Q99836: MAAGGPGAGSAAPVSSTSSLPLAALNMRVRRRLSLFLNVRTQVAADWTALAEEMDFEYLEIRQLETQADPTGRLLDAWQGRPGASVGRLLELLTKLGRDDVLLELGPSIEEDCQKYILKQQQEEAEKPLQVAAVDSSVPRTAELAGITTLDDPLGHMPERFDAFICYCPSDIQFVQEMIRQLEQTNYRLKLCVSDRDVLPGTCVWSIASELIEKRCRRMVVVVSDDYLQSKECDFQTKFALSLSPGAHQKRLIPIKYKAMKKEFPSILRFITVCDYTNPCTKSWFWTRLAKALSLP

We go through 3 molecules from article PMC9312982.

The target in test [1] is Toll-interleukin 1 receptor domain-containing adaptor protein (TIRAP) (human (endogenous in primary MDMs and THP-1)) (UniProt P58753). Put plainly: co-IP; as a1, human primary MDMs stimulated with CL075 (2 µg/mL) for 15 min only.
For test [2] the target is unchanged. Put plainly: co-IP; endogenous TIRAP precipitated for 4 h at +4 °C with anti-TIRAP antibodies covalently coupled to Dynabeads from lysates of human primary MDMs (150 mM NaCl, 50 mM TrisHCl pH 8.0, 1 mM EDTA, 1% NP40); cells untreated or stimulated by LPS (100 ng/mL) or CL075 (2 µg/mL) for the indicated times; Western blot for MyD88, IRAK1, IRAK4, TIRAP.
Test [3] shares this target. Description: co-IP; TIRAP precipitated from lysates of LPS-stimulated THP-1 cells, with or without pre-treatment with the IRAK4 inhibitor PF-06426779; Western blot. For orientation: Immunoblotting shows a protein as a band on a membrane.

For the molecule “interleukin-1 receptor-associated kinase 1 (IRAK1) (from UniProt P51617 1-712)”, the binding result is on record as “no binding (condition: 15 min of CL075 stimulation)” in test [1] and “binds” in test [2].
In the case of “myeloid differentiation primary response gene 88 (MyD88) (from UniProt Q99836 1-296)”, the binding entry in test [1] is reported as “no binding (condition: 15 min of CL075 stimulation)”.

B1: interleukin-1 receptor-associated kinase 4 (IRAK4) (protein, UniProt Q9NWZ3 1-460)
chain: MNKPITPSTYVRCLNVGLIRKLSDFIDPQEGWKKLAVAIKKPSGDDRYNQFHIRRFEALLQTGKSPTSELLFDWGTTNCTVGDLVDLLIQNEFFAPASLLLPDAVPKTANTLPSKEAITVQQKQMPFCDKDRTLMTPVQNLEQSYMPPDSSSPENKSLEVSDTRFHSFSFYELKNVTNNFDERPISVGGNKMGEGGFGVVYKGYVNNTTVAVKKLAAMVDITTEELKQQFDQEIKVMAKCQHENLVELLGFSSDGDDLCLVYVYMPNGSLLDRLSCLDGTPPLSWHMRCKIAQGAANGINFLHENHHIHRDIKSANILLDEAFTAKISDFGLARASEKFAQTVMTSRIVGTTAYMAPEALRGEITPKSDIYSFGVVLLEIITGLPAVDEHREPQLLLDIKEEIEDEEKTIEDYIDKKMNDADSTSVEAMYSVASQCLHEKKNKRPDIKKVQQLLQEMTAS
As for B1, the binding result is reported as “binds” in test [3], “no binding (condition: 15 min of CL075 stimulation)” in test [1] and “binds” in test [2].
